# Measured values: the supplement of paper PMC8728848
# This is one part of the list.
# Experiments:
# Assay in all cases: glycan array binding signal (z-score within array); higher = stronger binding
# Conditions in all cases: glycan notation: IUPAC condensed, linker removed
# [1] = molecular target: Gal(b1-3)GlcNAc(b1-6)[Gal(b1-3)]GalNAc
# Method in brief: (§1)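 The Consortium for Functional Glycomics database supplied 3228 glycan arrays, of which those lacking an available protein sequence were dropped. The binding signal, a within-array Z-score, was averaged across arrays of the same protein sequence and across linkers. Negative scores can be read as non-binding.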
# [2] = molecular target: Gal(b1-3)GlcNAc6S
# Method in brief: as §1
# [3] = molecular target: Gal(b1-3)[Fuc(a1-4)]GlcNAc
# Method in brief: as §1
# [4] = molecular target: Gal(b1-3)[Fuc(a1-4)]GlcNAc(b1-2)Man
# Method in brief: as §1
# [5] = molecular target: Gal(b1-3)[Fuc(a1-4)]GlcNAc(b1-2)Man(a1-3)[Gal(b1-3)[Fuc(a1-4)]GlcNAc(b1-2)Man(a1-6)]Man(b1-4)GlcNAc(b1-4)[Fuc(a1-6)]GlcNAc
# Method in brief: as §1
# [6] = molecular target: Gal(b1-3)[Fuc(a1-4)]GlcNAc(b1-3)Gal(b1-3)[Fuc(a1-4)]GlcNAc
# Method in brief: as §1
# [7] = molecular target: Gal(b1-3)[Fuc(a1-4)]GlcNAc(b1-3)Gal(b1-4)[Fuc(a1-3)]GlcNAc
# Method in brief: as §1
# [8] = molecular target: Gal(b1-3)[Fuc(a1-4)]GlcNAc(b1-6)GalNAc
# Method in brief: as §1
# [9] = molecular target: Gal(b1-3)[GlcNAc(b1-6)]GalNAc
# Method in brief: as §1
# [10] = molecular target: Gal(b1-3)[Neu5Ac(a2-6)]GalNAc
# Method in brief: as §1
# [11] = molecular target: Gal(b1-3)[Neu5Ac(a2-6)]GlcNAc(b1-4)Gal(b1-4)Glc
# Method in brief: as §1
# [12] = molecular target: Gal(b1-3)[Neu5Ac(b2-6)]GalNAc
# Method in brief: as §1
# [13] = molecular target: Gal(b1-4)Gal
# Method in brief: as §1
# [14] = molecular target: Gal(b1-4)GalNAc(a1-3)[Fuc(a1-2)]Gal(b1-4)GlcNAc
# Method in brief: as §1
# [15] = molecular target: Gal(b1-4)GalNAc(b1-3)[Fuc(a1-2)]Gal(b1-4)GlcNAc
# Method in brief: as §1
# [16] = molecular target: Gal(b1-4)Glc
# Method in brief: as §1
# [17] = molecular target: Gal(b1-4)Glc6S
# Method in brief: as §1
# [18] = molecular target: Gal(b1-4)GlcNAc
# Method in brief: as §1
# [19] = molecular target: Gal(b1-4)GlcNAc(a1-6)Gal(b1-4)GlcNAc
# Method in brief: as §1
# [20] = molecular target: Gal(b1-4)GlcNAc(b1-2)Man
# Method in brief: as §1
# [21] = molecular target: Gal(b1-4)GlcNAc(b1-2)Man(a1-3)Man(b1-4)GlcNAc(b1-4)GlcNAc
# Method in brief: as §1
# [22] = molecular target: Gal(b1-4)GlcNAc(b1-2)Man(a1-3)[Gal(b1-4)GlcNAc(b1-2)Man(a1-6)]Man(b1-4)GlcNAc(b1-4)GlcNAc
# Method in brief: as §1
# [23] = molecular target: Gal(b1-4)GlcNAc(b1-2)Man(a1-3)[Gal(b1-4)GlcNAc(b1-2)Man(a1-6)]Man(b1-4)GlcNAc(b1-4)[Fuc(a1-6)]GlcNAc
# Method in brief: as §1
# [24] = molecular target: Gal(b1-4)GlcNAc(b1-2)Man(a1-3)[Gal(b1-4)GlcNAc(b1-2)Man(a1-6)][Gal(b1-4)GlcNAc(b1-4)]Man(b1-4)GlcNAc(b1-4)[Fuc(a1-6)]GlcNAc
# Method in brief: as §1
# [25] = molecular target: Gal(b1-4)GlcNAc(b1-2)Man(a1-3)[Gal(b1-4)GlcNAc(b1-2)Man(a1-6)][GlcNAc(b1-4)]Man(b1-4)GlcNAc(b1-4)[Fuc(a1-6)]GlcNAc
# Method in brief: as §1
# [26] = molecular target: Gal(b1-4)GlcNAc(b1-2)Man(a1-3)[GlcNAc(b1-2)Man(a1-6)]Man(b1-4)GlcNAc(b1-4)GlcNAc
# Method in brief: as §1
# [27] = molecular target: Gal(b1-4)GlcNAc(b1-2)Man(a1-3)[GlcNAc(b1-4)][Gal(b1-4)GlcNAc(b1-2)Man(a1-6)]Man(b1-4)GlcNAc(b1-4)GlcNAc
# Method in brief: as §1
# [28] = molecular target: Gal(b1-4)GlcNAc(b1-2)Man(a1-3)[Man(a1-6)]Man(b1-4)GlcNAc(b1-4)GlcNAc
# Method in brief: as §1
# [29] = molecular target: Gal(b1-4)GlcNAc(b1-2)Man(a1-6)Man(b1-4)GlcNAc(b1-4)GlcNAc
# Method in brief: as §1
# [30] = molecular target: Gal(b1-4)GlcNAc(b1-2)Man(a1-6)[GlcNAc(b1-2)Man(a1-3)]Man(b1-4)GlcNAc(b1-4)GlcNAc
# Method in brief: as §1
# [31] = molecular target: Gal(b1-4)GlcNAc(b1-2)Man(a1-6)[Man(a1-3)]Man(b1-4)GlcNAc(b1-4)GlcNAc
# Method in brief: as §1
# [32] = molecular target: Gal(b1-4)GlcNAc(b1-2)[Gal(b1-4)GlcNAc(b1-4)]Man(a1-3)[Gal(b1-4)GlcNAc(b1-2)Man(a1-6)]Man(b1-4)GlcNAc(b1-4)GlcNAc
# Method in brief: as §1
# [33] = molecular target: Gal(b1-4)GlcNAc(b1-2)[Gal(b1-4)GlcNAc(b1-4)]Man(a1-3)[Gal(b1-4)GlcNAc(b1-2)[Gal(b1-4)GlcNAc(b1-6)]Man(a1-6)]Man(b1-4)GlcNAc(b1-4)GlcNAc
# Method in brief: as §1
# [34] = molecular target: Gal(b1-4)GlcNAc(b1-2)[Gal(b1-4)GlcNAc(b1-4)]Man(a1-3)[GlcNAc(b1-4)][Gal(b1-4)GlcNAc(b1-2)Man(a1-6)]Man(b1-4)GlcNAc(b1-4)GlcNAc
# Method in brief: as §1
# [35] = molecular target: Gal(b1-4)GlcNAc(b1-2)[Gal(b1-4)GlcNAc(b1-4)]Man(a1-3)[GlcNAc(b1-4)][Gal(b1-4)GlcNAc(b1-2)[Gal(b1-4)GlcNAc(b1-6)]Man(a1-6)]Man(b1-4)GlcNAc(b1-4)GlcNAc
# Method in brief: as §1
# [36] = molecular target: Gal(b1-4)GlcNAc(b1-2)[Gal(b1-4)GlcNAc(b1-6)]Man(a1-6)[Gal(b1-4)GlcNAc(b1-2)Man(a1-3)]Man(b1-4)GlcNAc(b1-4)GlcNAc
# Method in brief: as §1
# [37] = molecular target: Gal(b1-4)GlcNAc(b1-2)[Gal(b1-4)GlcNAc(b1-6)]Man(a1-6)[Gal(b1-4)GlcNAc(b1-2)Man(a1-3)]Man(b1-4)GlcNAc(b1-4)[Fuc(a1-6)]GlcNAc
# Method in brief: as §1
binder,measurement,setting,value
SBD-G4S3-Fc (protein) MASIPSSASVQLDSYNYDGSTFSGKIYVKNIAYSKKVTVVYADGSDNWNNNGNIIAASFSGPISGSNYEYWTFSASVKGIKEFYIKYEVSGKTYYDNNNSANYQVSTGGGGSGGGGSGGGGSEFVPRDCGCKPCICTVPEVSSVFIFPPKPKDVLTITLTPKVTCVVVDISKDDPEVQFSWFVDDVEVHTAQTQPREEQFNSTFRSVSELPIMHQDWLNGKEFKCRVNSAAFPAPIEKTISKTKGRPKAPQVYTIPPPKEQMAKDKVSLTCMITDFFPEDITVEWQWNGQPAENYKNTQPIMDTDGSYFVYSKLNVQKSNWEAGNTFTCSVLHEGLHNHHTEKSLSHSPGAA,glycan array binding signal (z-score),[1],0.151
same,glycan array binding signal (z-score),[2],-0.378
same,glycan array binding signal (z-score),[3],-0.135
same,glycan array binding signal (z-score),[4],-0.252
same,glycan array binding signal (z-score),[5],0.378
same,glycan array binding signal (z-score),[6],-0.26
same,glycan array binding signal (z-score),[7],-0.317
same,glycan array binding signal (z-score),[8],-0.135
same,glycan array binding signal (z-score),[9],-0.227
same,glycan array binding signal (z-score),[10],-0.564
same,glycan array binding signal (z-score),[11],-0.176
same,glycan array binding signal (z-score),[12],-0.146
same,glycan array binding signal (z-score),[13],0.689
same,glycan array binding signal (z-score),[14],-0.533
same,glycan array binding signal (z-score),[15],-0.146
same,glycan array binding signal (z-score),[16],-0.078
same,glycan array binding signal (z-score),[17],-0.194
same,glycan array binding signal (z-score),[18],-0.072
same,glycan array binding signal (z-score),[19],-0.002
same,glycan array binding signal (z-score),[20],-0.114
same,glycan array binding signal (z-score),[21],0.225
same,glycan array binding signal (z-score),[22],0.533
same,glycan array binding signal (z-score),[23],0.49
same,glycan array binding signal (z-score),[24],-0.433
same,glycan array binding signal (z-score),[25],0.189
same,glycan array binding signal (z-score),[26],-0.37
same,glycan array binding signal (z-score),[27],-0.469
same,glycan array binding signal (z-score),[28],-0.401
same,glycan array binding signal (z-score),[29],-0.3
same,glycan array binding signal (z-score),[30],-0.286
same,glycan array binding signal (z-score),[31],0.054
same,glycan array binding signal (z-score),[32],-0.068
same,glycan array binding signal (z-score),[33],-0.13
same,glycan array binding signal (z-score),[34],-0.029
same,glycan array binding signal (z-score),[35],-0.045
same,glycan array binding signal (z-score),[36],-0.105
same,glycan array binding signal (z-score),[37],-0.217
